# Test results as given in the antibiotic and cytotoxicity screens of Wong et al. (2023).
# This is one part of the list.
# Tested on: HSkMC (human skeletal muscle cells)
# Test: cytotoxicity call (relative viability < 0.9)
# Details: 10 µM
row,Compound,cytotoxicity call
1,COc1cccc(C#Cc2ccc3c(c2)O[C@H](CN(C)C(=O)c2ccccn2)[C@H](C)CN([C@@H](C)CO)S3(=O)=O)c1,inactive
2,C[C@H]1CN([C@@H](C)CO)C(=O)CCCn2nncc2CO[C@H]1CN(C)C(=O)c1ccc(N2CCN(C)CC2)cc1,inactive
3,COc1ccc(NC(=O)Nc2ccc3c(c2)C(=O)N([C@H](C)CO)C[C@H](C)[C@@H](CN(C)CC2CCCCC2)OCCCC[C@H](C)O3)cc1,inactive
4,CCc1nc2ccc(C(=O)N3CCN(c4ccccc4)CC3)cn2c1N(CC)Cc1cccc(Br)c1,inactive
5,COc1ccccc1-c1ccc2c(c1)O[C@H](CN(C)C(=O)c1cccnc1)[C@@H](C)CN([C@@H](C)CO)S2(=O)=O,inactive
6,Cc1ccc(-c2cnc3c(c2)C(=O)N([C@@H](C)CO)C[C@@H](C)[C@@H](CN(C)C(=O)Cc2cccnc2)O3)cc1,inactive
7,C[C@H](C(=O)NC1CCCC1)N(C(=O)Cn1nnc(-c2ccc3c(c2)OC(F)(F)O3)n1)C1CCCCC1,inactive
8,C[C@@H]1CCCCO[C@H](CN(C)C(=O)Nc2ccc(C(F)(F)F)cc2)[C@H](C)CN([C@H](C)CO)C(=O)c2cc(NC(=O)C3CCCCC3)ccc2O1,inactive
9,CO[C@@H]1CN(C)C(=O)c2cc(NC(=O)NC3CCCCC3)ccc2OC[C@@H](C)N(CCc2ccccc2)C[C@H]1C,inactive
10,CC(C)NC(=O)N[C@H]1C=C[C@@H](CC(=O)NCCCN(C)C)O[C@@H]1CO,inactive
11,COc1ccc(S(=O)(=O)N(C)C[C@@H]2Oc3ccc(NS(=O)(=O)c4ccc(F)cc4)cc3CC(=O)N([C@@H](C)CO)C[C@@H]2C)cc1,inactive
12,C[C@H]1CN([C@@H](C)CO)C(=O)Cc2cc(NS(C)(=O)=O)ccc2O[C@@H]1CN(C)Cc1ccc(C(=O)Nc2ccccc2N)cc1,inactive
13,COc1ccc([Si](C)(C)[C@H]2[C@H](CC(=O)N(CCO)Cc3ccccc3)O[C@@]3(C(=O)N(Cc4cccc(N5CCCCC5=O)c4)c4ccccc43)[C@@H]2C)cc1,inactive
14,CC1=NCC[C@@H](C(=O)O)N1,inactive
15,CCCCOc1ccc(C(=O)CCN2CCCCC2)cc1.Cl,inactive
16,Oc1c(I)cc(Cl)c2cccnc12,inactive

row,Compound,cytotoxicity call
1,C[C@@H]1CN([C@H](C)CO)C(=O)c2cc(NC(=O)Cn3cnnn3)ccc2O[C@H]1CN(C)S(C)(=O)=O,inactive
2,C[C@@H]1CN([C@H](C)CO)C(=O)Cc2cc(NC(=O)Nc3ccc(F)cc3)ccc2O[C@@H]1CN(C)Cc1ccc(Oc2ccccc2)cc1,active
3,Cc1cc(C)n(N)c(=O)c1C(=O)O,inactive
4,COc1ccc2c3c(n(c2c1)C)[C@H](CO)N(C[C@]13CCN(CC1)S(=O)(=O)c1cn(cn1)C)C(=O)Nc1ccc(cc1)F,inactive
5,COc1ccc(NC(=O)N(C)C[C@@H]2OCCCC[C@@H](C)Oc3ccc(NC(=O)NC(C)C)cc3C(=O)N([C@H](C)CO)C[C@H]2C)cc1,inactive
6,C[C@H](CO)N1C[C@H](C)[C@H](CN(C)C(=O)NC2CCCCC2)OCCCC[C@H](C)Oc2ccc(NC(=O)Nc3ccc4c(c3)OCO4)cc2C1=O,inactive
7,CCNC(=O)C[C@H]1C=C[C@@H](NC(=O)C2CC2)[C@@H](CO)O1,inactive
8,Cc1cc(C)nc(SCC(=O)NN)n1,inactive
9,COCC(=O)Nc1ccc2c(c1)OC[C@@H](C)N(Cc1cccc(F)c1)C[C@H](C)[C@@H](OC)CN(C)C2=O,inactive
10,Cc1noc(C)c1S(=O)(=O)Nc1ccc2c(c1)C(=O)N([C@H](C)CO)C[C@H](C)[C@@H](CN(C)S(C)(=O)=O)OCCCC[C@@H](C)O2,inactive
11,O=C(C[C@H]1CC=CC[C@@H](Cc2ccc(F)cc2)C(=O)OC[C@H](Cc2c[nH]c3ccccc23)NC1=O)NCCO,inactive
12,Cc1ccc(S(=O)(=O)Nc2ccc3c(c2)C(=O)N([C@H](C)CO)C[C@@H](C)[C@H](CN(C)S(=O)(=O)c2ccc(C)cc2)OCCCC[C@H](C)O3)cc1,inactive
13,C[C@H]1CCCCO[C@H](CN(C)Cc2ccc(C(F)(F)F)cc2)[C@@H](C)CN([C@@H](C)CO)C(=O)c2cc(NC(=O)C3CCCCC3)ccc2O1,inactive
14,COc1ccc(S(=O)(=O)N(C)C[C@H]2OCCCC[C@H](C)Oc3ccc(NS(C)(=O)=O)cc3C(=O)N([C@H](C)CO)C[C@@H]2C)cc1,inactive
15,O=C(NCCCN1CCOCC1)[C@H]1[C@H](CO)[C@H]2Cn3c(ccc(C4=CCCCC4)c3=O)[C@@H]1N2,inactive
